Whole data set: some 33,000 sequences, median “E-score (-0.5 to 0.5)” near -0.035, cut for the highest 2% near 0.34. The list shows a part of the results.
Target: T1, Mot3 (UniProt P54785)
T1 sequence: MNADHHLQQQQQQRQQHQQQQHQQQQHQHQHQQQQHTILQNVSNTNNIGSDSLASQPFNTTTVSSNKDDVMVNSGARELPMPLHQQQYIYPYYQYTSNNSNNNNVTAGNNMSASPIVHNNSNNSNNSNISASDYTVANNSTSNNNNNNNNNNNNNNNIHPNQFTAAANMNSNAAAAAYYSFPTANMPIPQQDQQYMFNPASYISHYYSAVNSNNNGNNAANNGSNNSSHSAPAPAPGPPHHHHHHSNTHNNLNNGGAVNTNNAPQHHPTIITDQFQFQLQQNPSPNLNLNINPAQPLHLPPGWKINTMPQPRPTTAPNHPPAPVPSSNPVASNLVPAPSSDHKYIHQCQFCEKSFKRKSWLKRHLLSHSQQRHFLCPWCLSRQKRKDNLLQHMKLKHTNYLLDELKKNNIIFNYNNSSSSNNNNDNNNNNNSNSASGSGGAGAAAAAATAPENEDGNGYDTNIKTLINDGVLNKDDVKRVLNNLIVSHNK
Test: PBM E-score (8-mer binding enrichment) (E-score (-0.5 to 0.5)); higher = stronger / more preferred TF binding; most listed sequences are background and not binding sites
Settings: protein concentration: 200 nM; construct: GST-full length
In short: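 PURExpress in vitro transcription/translation supplied GST-tagged yeast transcription factors, either full-length or DNA-binding domain. Applied at about 100-200 nM to universal all-10-mer Agilent arrays double-stranded by primer extension, the bound protein was detected with fluorescent anti-GST. E-scores, modified Wilcoxon-Mann-Whitney statistics, were given by the Universal PBM Analysis Suite to ungapped eight-base words pooled with their reverse complements after masliner normalisation.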

Sequence	PBM E-score
ACGCAACA	0.242
CACCAGCA	-0.165
CTCAGCAC	0.0464
ACATCCGT	0.0788
ATGGCTGG	-0.14
ATCAAGGC	0.261
CCGGGGTC	-0.135
CCTTCGCA	0.0464
TACGCGTA	0.291
GTGGAGAA	-0.274
GTGATGCA	0.0593
GCTACCTA	0.0719
ACTACGAA	0.0106
GTTCCCTA	0.179
AAACGGCC	-0.0862
CCTGGAAA	0.154
CGGGTTGA	-0.197
ACAAAAGA	0.166
CTTCGTCC	-0.145
GAGCGGTA	-0.0867
CACGATGC	-0.0778
AACCATCT	-0.143
AGTTTAGG	0.0655
TAAAGCGA	0.1
ATGGGTAC	0.0147

Sequence	PBM E-score
AACGTCCG	-0.0926
GATCACTA	-0.191
CGATAATA	-0.0766
TAAATTTA	0.154
TCTTGTCA	0.0425
CGTCCGTC	-0.357
AGTCCGCA	-0.0253
AAACTACG	0.0222
AACTAAAA	0.108
CACTCCCA	-0.106
TGGTGTAA	0.186
ATTCGTCG	-0.0541
ATTACAAT	0.299
CGCATGAG	-0.157
AACGTATA	0.119
GCTGATAA	0.0326
GGACTACA	0.102
AATGCAGA	-0.00015
CCCCTCGC	-0.41
CGTTCGAA	-0.159
CATAGATC	-0.0706
CGGAAAAC	0.0409
CGTCTTAG	-0.0371
CGCTGTAG	-0.123
AACTCAGG	0.0371

Sequence	PBM E-score
ATAGCAGG	0.0115
GACCAGAC	-0.23
CGGTCCCC	-0.28
ACGCGGAG	0.105
GGGCCGTA	-0.224
AGGAGATA	-0.036
ATAATGAA	0.08
ATTTAGGA	0.115
AAGAGTCC	-0.325
GCCTCTGA	-0.0212
ACCCAGAA	0.118
AGGACTAC	-0.121
AAATTAGG	0.0359
ATCCCTGC	-0.0769
AATAATTC	0.106
ACATGCCA	0.304
CCGCTCTC	-0.26
CTCGTCAG	-0.00992
AGGATTTG	-0.109
TGACGTAA	0.258
CGCCTTGC	0.0442
CATGGCGA	-0.075
ATGTTGGG	0.114
CTACCACA	0.0407
ATATGACA	0.1

Sequence	PBM E-score
CCGCCTGC	-0.254
CCACTCAA	-0.0799
GCTAGGCA	0.446
ACACCTTC	0.197
AGGACGGC	-0.00286
AGCCGCGG	-0.228
ATTCGACA	0.206
GGGGGAGA	-0.223
CATAAAAC	0.0164
CCAGCTGA	-0.0351
AACCCTTA	0.136
TACAGCAA	0.0763
AACTGAAC	-0.0966
CGGGTTCC	0.137
AGGAAGGA	0.0926
CGTCTGGC	-0.144
CTACGCAG	0.213
AGGCTCCG	0.223
CCGGCAGC	-0.343
ATACACAA	0.324
AAACGGGG	-0.0742
GCTGTAAA	0.25
ATCGCAGC	-0.296
TCACAACA	0.313
GTCGCCAA	-0.274

Sequence	PBM E-score
GAATTTAA	-0.02
TAGAAACA	0.202
GATATTGA	-0.109
TCGAGTCA	-0.115
CACCAACA	0.0532
AAGAACTA	0.085
CATCTGTA	-0.0963
AGTGGCTC	-0.172
AGGTACAG	0.332
CGCGAGTC	-0.148
CGAGTGTA	0.0972
ACACGGAT	0.302
CCTATAGG	0.113
CACCGCCC	-0.0948
CTTGCTGA	-0.121
ACAATACT	0.0808
AAGCTTCA	-0.264
CTAGGACA	-0.00867
ACGACATA	0.122
AGCAGCGA	-0.113
AACGTTGC	0.157
CTTAATCA	0.00665
GTAAGGGA	0.145
AAACGGGT	0.0486
GCAAACCC	-0.013

Sequence	PBM E-score
CGCGGCAC	-0.154
CACGAAGC	0.0616
ACTTGCCT	0.479
GTTTCCCA	-0.246
GATGCGAC	-0.229
AAAATTCC	0.0292
ATGACAAC	0.117
AAGCGACT	-0.168
GCTCAACA	0.158
ACAGTCGT	-0.12
GAACAGCA	-0.00296
GTGGCGAA	0.0447
GAAACGTA	0.111
CCGAGGAC	-0.253
AAGACTCT	-0.0129
GGTTGTCA	-0.00186
AGGACCTC	-0.128
TGCATAAA	0.172
CCGACTTC	-0.155
GCATTTGA	0.0576
AGTTCCGA	-0.142
ACTTCGTC	-0.192
ACGGGGTA	0.0158
ACTTAAGA	-0.0379
CCGTTTGA	-0.197

Sequence	PBM E-score
CCGTCTGA	-0.112
ACAATAGC	0.0585
GTGCGGCA	-0.217
GGAGAGCC	-0.151
AACGTGTC	0.273
GAGGGAAC	-0.0395
GAGGTAAA	0.0852
ACGGTATA	-0.0946
CCGTAACG	-0.0486
TCAGGAGA	-0.0813
GGAACAAC	0.229
ATCCTGCC	-0.0886
ACGTTGGG	-0.0423
GCTTACAC	0.178
CCGCTCAC	-0.322
CCATGAAG	-0.233
ATAGACGA	-0.0249
CTACAACA	0.172
ACTATTGC	0.00783
AAGTGAAA	-0.0272
GCGCACTA	-0.199
GCGCGCCC	-0.276
CTGGCGGA	-0.124
CGATGACA	0.0888
GAAACATA	0.211

Sequence	PBM E-score
AGGATGTC	0.107
ATCAGCTA	-0.0497
AGTTCAGA	-0.141
AGGACCTG	-0.201
CGCTCACA	-0.0625
CTAGCCCA	-0.216
ATCCGTAA	-0.11
CAGGAATG	-0.0291
CGTGGAGC	-0.18
TTAAATAA	0.111
TCGCGCAA	-0.0049
ACAAGGCG	0.109
TGAGTAAA	0.229
GGATAGGA	-0.0985
ACTTGGAT	0.0576
GAGCAGAA	-0.182
CGCGCCTA	0.303
AGGCGGCA	0.0359
CCTAAGAC	-0.106
CATGGTCG	-0.0196
GGCAACCC	0.14
AGATGTCG	-0.0342
ACCCGCGA	0.0237
AACTCGGG	-0.162
GAAATGGA	0.00318

Sequence	PBM E-score
ACTATGCT	-0.0241
AGTTGTCG	-0.0388
AACACATT	0.194
CAACACTA	0.105
TCCGACCA	-0.139
CTGCAGTC	-0.106
TATCAGAA	0.0312
ATATGAAA	0.141
ATAATTGG	-0.204
AATATAGT	0.085
GTATTATA	0.187
ATGAGTTC	0.0311
ATAACCGG	-0.205
AGACTATG	-0.0459
CTCAGAGC	-0.168
GAAAACGA	-0.0665
TGGTAACA	0.141
AAAAAAAT	0.171
GAGAAAAC	0.00577
AAATTACC	0.209
AGAGTAGC	-0.162
CTTGGTAC	0.175
AATATGCC	-0.0377
CTTTTCAC	0.173
CTGATTAA	0.112

Sequence	PBM E-score
GGGACTAC	-0.199
CAATGCAC	0.085
CAGTAATA	0.191
CGAGCGGA	-0.341
GAGATTAA	-0.0414
ATTTGTTA	0.109
ACGGGCAG	0.142
CCACAGTA	-0.0585
CATTAATG	0.0688
AGAGGCTC	-0.395
CGCAGCAA	-0.18
AAATTGCT	-0.0187
ATCTGAAG	-0.201
AATCGTTC	-0.076
CCTGGGTC	-0.0668
AGTTGATG	0.189
AAGTACAG	-0.0233
TGTCTAAA	0.295
CGTCCAAG	-0.303
ATCTTATC	0.0474
GGGCGCTA	-0.168
ATCCCAAG	-0.243
ACCCACAC	-0.0586
GAGGGCGC	-0.165
GGAGAGCA	-0.0284

Sequence	PBM E-score
CATAGATG	0.0346
GGAAGGAC	-0.122
GAGTTAAA	0.153
GACGCAGA	-0.116
TCAACACA	0.353
AGTCCAAT	-0.0678
CTCAATAA	-0.0988
CTCCTCAC	-0.136
GTAGTCCA	-0.115
AAAGGGTC	0.023
AGGGCACG	0.285
GCTATCGA	-0.138
GCGCGGCA	-0.0979
TACCGTAA	0.11
ATAGTCCC	-0.234
ATCCGGAA	-0.219
AACGACAC	0.0877
ACATGGAT	0.294
AACTGCGT	0.0413
AAAATTAT	0.216
CATCTTTA	0.118
ACCCTCTA	0.0362
ATCTTCAT	-0.0494
GATGAACA	0.14
CTTGTTTC	0.136

Sequence	PBM E-score
CAAGCGAC	-0.0636
ACTCATAG	-0.118
GCTTAGCA	-0.064
CCTCGGAA	-0.137
CCTCGTGC	0.016
GCACTAGA	-0.177
AACGATAG	0.119
ATACGTTA	0.158
CTAGCCCC	-0.222
ATCAGAGC	-0.212
CTATGGAA	-0.0756
CTGGAAAG	-0.158
ACATATCA	0.124
CGAGTGGC	-0.194
CTTCCGCA	-0.179
CACAATAC	0.125
ACGTCGTC	-0.00298
AGCCAAAA	0.0655
AGTTCGTA	0.195
TGCGTCCA	-0.281
CTTGGTTC	0.0572
CAAACATG	0.258
ACCTTGGC	-0.101
TTAACCAA	0.0506
GAAACGCA	-0.0449

Sequence	PBM E-score
CTCAGGGC	-0.29
CTGCCTCC	-0.215
CACAGAAA	0.195
CCCAAGTC	-0.284
GACTATGA	-0.191
CGGCATAA	-0.11
CCTCTCAC	-0.155
CGTTGTGA	-0.0244
AAAGGGGC	0.0724
TCCCTACA	0.0641
AAGCCGGG	-0.253
GTAGGAAC	0.457
GAATACCA	-0.0952
GCGACCAA	-0.138
CGCGTAAA	0.392
AACGGCAA	0.0287
CTAGGGCA	-0.249
AGTCTCGC	-0.221
AAAGCCTA	0.261
TCTCTTCA	-0.164
CTCCCCAG	-0.168
ATGTGTTA	0.316
TAGGTGAA	-0.0094
ACCCTAAG	-0.157
CATTCATA	0.0769

Sequence	PBM E-score
CTTGGTGC	-0.0843
CCCGGTAC	-0.171
CCTGCACA	0.161
ATGCATAA	0.182
ATGCATCC	-0.14
GAATCCTA	-0.0702
CACACATA	0.0979
CAGTACTC	-0.249
AACGGTGT	-0.0428
GCAGTGAA	0.114
CTGTGCAA	0.00342
CCGTGACC	-0.314
AACTAATG	0.15
ACCATTAA	0.0184
ATTCCTTA	0.211
AACCCAGA	-0.103
TACGTCAA	0.219
CCTGAGCG	-0.161
ATACCAAT	-0.041

Reference: the supplement of paper PMC3334620
